{"source": "PubChem BioAssay (Tox21)", "note": "Values joined by “and” are separate entries in the source; they are usually repeats but may differ in a detail not shown here. Identical values can stand only once. Inconclusive results, whose numbers are uncertain, are shown with a selection of clear calls. A potency beside an inconclusive call is a rough fit, not a confirmed value. Active and inactive are the calls of the source. Unless noted, calls follow the shape of the dose curve; as a rule, active = well fitted curve in the direction sought with a large enough effect in the repeat runs; inconclusive = weak or mixed curves; inactive = no such curve, though single readings can be large; an effect the other way counts as inactive or inconclusive. Potency is read from the fitted curve at half-maximal effect; tags tell the direction and shape of the fitted curve or compound fluorescence and quenching."}
{"test": "qHTS assay to identify small molecule agonists of the hypoxia (HIF-1) signaling pathway (AID 1224846; active = well fitted activation curve with a large enough effect in the signal ratio in the repeat runs, not every such curve was filed as active; inconclusive = weak or mixed curves; the % refers to the signal ratio)", "conditions": "HRE-bla ME-180 cells, beta-lactamase ratio, 17 h; series mostly up to 76.8 µM", "procedure,_shortened": "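Compounds added to ME-180 cells carrying hypoxia-response-element beta-lactamase reporter (0.5% dialyzed FBS, 5 h preplating), 17 h at 37C; agonist activity detected by CCF4-AM B/G FRET read-out.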"}
{"smiles": "C=CC(=O)OCCOCC(CC)(COCCOC(=O)C=C)COCCOC(=O)C=C", "Potency": "inconclusive: 57.3 µM [falling, partial curve]"}
{"smiles": "O=C(OCC(COC(=O)c1ccccc1)(COC(=O)c1ccccc1)COC(=O)c1ccccc1)c1ccccc1", "Potency": "inconclusive: 34.6 µM [falling, partial curve]"}
{"smiles": "O=C1OC2(c3ccc(O)cc3Oc3cc(O)ccc32)c2ccc(N=C=S)cc21", "Potency": "inconclusive: 22.3 µM [rising, full curve]"}
{"smiles": "CN(Cc1cc(Br)cc(Br)c1N)C1CCCCC1", "Potency": "inconclusive: 30.1 µM [falling, single point]"}
{"smiles": "O=Cc1cc(O)ccc1Br", "Potency": "inconclusive: 55.7 µM [falling, single point]"}
{"smiles": "COC1=C(OC)C(=O)C(CCCCCCCCCCO)=C(C)C1=O", "Potency": "inconclusive: 26.8 µM"}
{"smiles": "CC1(C)O[C@@H]2C[C@H]3[C@@H]4CCC5=CC(=O)CC[C@]5(C)[C@@]4(F)[C@@H](O)C[C@]3(C)[C@]2(C(=O)CCl)O1", "Potency": "inconclusive: 10.7 µM [activator, single point]"}
{"smiles": "Cc1ccc2oc(CN(Cc3ccccc3)C(=O)Nc3c(F)cc(F)cc3F)c(-c3ccc(Cl)cc3)c2c1", "Potency": "inconclusive: 42.3 µM [falling, partial curve, poor fit]"}
{"smiles": "C=C[C@](C)(O)CC[C@@H]1[C@@]2(C)CCCC(C)(C)[C@@H]2CC[C@@]1(C)O", "Potency": "inconclusive: 54.9 µM [single point]"}
{"smiles": "C#C[C@]1(O)CC[C@H]2[C@@H]3CCc4cc(OC5CCCC5)ccc4[C@H]3CC[C@@]21C", "Potency": "inconclusive: 26.8 µM"}
{"smiles": "O=C(N/N=C/c1ccccc1O)c1ccncc1", "Potency": "inconclusive: 21.3 µM [activator]"}
{"test": "qHTS assay to identify small molecule agonists of H2AX - cell viability counter screen (AID 1224847; calls by dose curve; also: nearly all actives have a fitted effect of over 30% in size)", "conditions": "CHO-K1 viability, CellTiter-Glo luminescence, 3 h; series mostly up to 154 µM", "procedure,_shortened": "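We seed wild-type CHO-K1 cells overnight, treat them for 3 hr at 37C with compounds in 15-concentration series, and quantify remaining viability by CellTiter-Glo luminescence.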"}
{"smiles": "N=C1C=CC(=C(c2ccc(N)cc2)c2ccc(N)cc2)C=C1", "Potency": "active: 28.4 µM"}
{"smiles": "CN(Cc1cc(Br)cc(Br)c1N)C1CCCCC1", "Potency": "inconclusive: 55.2 µM [cytotoxic, partial curve]"}
{"smiles": "O=Cc1cc(O)ccc1Br", "Potency": "inconclusive: 129 µM [cytotoxic, partial curve, poor fit]"}
{"smiles": "CCCC(C(=O)OCCN(CC)CC)(c1ccccc1)c1ccccc1", "Potency": "inconclusive: 4.38 µM [cytotoxic, full curve]"}
{"smiles": "O=C1OC2(c3ccccc31)c1cc(I)c(O)c(I)c1Oc1c2cc(I)c(O)c1I", "Potency": "inconclusive: 24.7 µM [cytotoxic, partial curve]"}
{"smiles": "Cc1cccc(C(C)(C)C)c1O", "Potency": "inconclusive: 127 µM [cytotoxic, single point]"}
{"smiles": "Cc1ccc2oc(CN(Cc3ccccc3)C(=O)Nc3c(F)cc(F)cc3F)c(-c3ccc(Cl)cc3)c2c1", "Potency": "inconclusive: 11 µM [cytotoxic, full curve]"}
{"smiles": "C=C[C@](C)(O)CC[C@@H]1[C@@]2(C)CCCC(C)(C)[C@@H]2CC[C@@]1(C)O", "Potency": "active: 113 µM"}
{"smiles": "C#C[C@]1(O)CC[C@H]2[C@@H]3CCc4cc(OC5CCCC5)ccc4[C@H]3CC[C@@]21C", "Potency": "active: 49.2 µM"}
{"smiles": "CCCCN(CCCC)CC(O)c1cc(Cl)cc2c1-c1ccc(Cl)cc1/C2=C/c1ccc(Cl)cc1", "note": "(stereo unspecified)", "Potency": "inconclusive: 49.2 µM [cytotoxic, partial curve]"}
{"test": "qHTS assay to identify small molecule antagonists of the estrogen related receptor (ERR) signaling pathway from Tox21 library (AID 1224848); also: nearly all actives have a fitted effect of over 50% in size", "conditions": "ERR reporter cell line, luciferase antagonist mode, 18 h; series mostly up to 92.4 µM", "procedure,_shortened": "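Luciferase luminescence (ONE-Glo, 30 min room temperature) was the read-out. Cells of the NTP-supplied ERR line, 2,000 per well, were given 6 h at 37 C before compound addition in DMSO and 18 h exposure at 37 C.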"}
{"smiles": "O=C1OC2(c3ccccc31)c1cc(I)c(O)c(I)c1Oc1c2cc(I)c(O)c1I", "Potency": "inconclusive: 8.65 µM [inhibitor, full curve] and inconclusive: 27.6 µM [inhibitor, partial curve] and inconclusive: 5.25 µM [inhibitor, partial curve]"}
{"smiles": "O=C(N/N=C/c1ccccc1O)c1ccncc1", "Potency": "active: 11.9 µM"}
{"smiles": "CCCCN(CCCC)CC(O)c1cc(Cl)cc2c1-c1ccc(Cl)cc1/C2=C/c1ccc(Cl)cc1", "note": "(stereo unspecified)", "Potency": "inconclusive: 33.5 µM [inhibitor, single point]"}
{"smiles": "Cc1occc1S", "Potency": "inactive"}
{"test": "qHTS RealTime-Glo MT Cell Viability Assay in HepG2 cells - 24 hour (AID 1224867); also: nearly all actives have a fitted effect of over 50% in size", "conditions": "RealTime-Glo luminescence; series mostly up to 76.8 µM", "procedure,_shortened": "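HepG2 suspension premixed with RealTime-Glo reagents is plated at 600 cells per well and left 5 h at 37 C/5% CO2. Compounds in DMSO then go in, and bioluminescence reflecting viable cell number is recorded over 40 h.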"}
{"smiles": "N=C1C=CC(=C(c2ccc(N)cc2)c2ccc(N)cc2)C=C1", "Potency": "active: 24.5 µM"}
{"smiles": "O=C1OC2(c3ccc(O)cc3Oc3cc(O)ccc32)c2ccc(N=C=S)cc21", "Potency": "inconclusive: 39.6 µM [falling, partial curve]"}
{"smiles": "Nc1nnc(-c2ccc([N+](=O)[O-])o2)o1", "Potency": "inconclusive: 54.9 µM [falling, single point]"}
{"smiles": "CN(C)C(=N)N=C(N)N", "Potency": "inactive"}
{"smiles": "CCCC(C(=O)OCCN(CC)CC)(c1ccccc1)c1ccccc1", "Potency": "inconclusive: 26.8 µM [falling, partial curve, poor fit]"}
{"smiles": "O=C1OC2(c3ccccc31)c1cc(I)c(O)c(I)c1Oc1c2cc(I)c(O)c1I", "Potency": "inconclusive: 29.8 µM [falling, partial curve] and inconclusive: 23.9 µM [falling, partial curve]"}
{"smiles": "C[C@H](CN1CCCC1)C(=O)c1ccc(C(F)(F)F)cc1", "Potency": "inconclusive: 26.8 µM [falling, single point]"}
{"smiles": "Cc1ccc2oc(CN(Cc3ccccc3)C(=O)Nc3c(F)cc(F)cc3F)c(-c3ccc(Cl)cc3)c2c1", "Potency": "inconclusive: 18.9 µM [falling, partial curve]"}
{"smiles": "C=C[C@](C)(O)CC[C@@H]1[C@@]2(C)CCCC(C)(C)[C@@H]2CC[C@@]1(C)O", "Potency": "active: 49 µM"}
{"smiles": "C#C[C@]1(O)CC[C@H]2[C@@H]3CCc4cc(OC5CCCC5)ccc4[C@H]3CC[C@@]21C", "Potency": "inconclusive: 21.3 µM [falling, partial curve]"}
{"smiles": "CCCCN(CCCC)CC(O)c1cc(Cl)cc2c1-c1ccc(Cl)cc1/C2=C/c1ccc(Cl)cc1", "note": "(stereo unspecified)", "Potency": "inconclusive: 26.8 µM [falling, single point]"}
